Two compounds from article PMC10466050, “A comparative study of human and zebrafish glucocorticoid receptor activities of natural and pharmaceutical steroids” (Frontiers in Endocrinology, 2023) can be followed below.

Assay [1] concerns the target zfGR (Danio rerio, UniProt Q1XHK0). As to the kind of experiment: Antagonistic activity assessment in presence of 3 nM dexamethasone, UMLN-zfGR cells. It counts as cell-based, zebrafish.
Assay [2] has as its target T1, hGR (Homo sapiens, UniProt P04150).
T1 sequence (P04150 1-777): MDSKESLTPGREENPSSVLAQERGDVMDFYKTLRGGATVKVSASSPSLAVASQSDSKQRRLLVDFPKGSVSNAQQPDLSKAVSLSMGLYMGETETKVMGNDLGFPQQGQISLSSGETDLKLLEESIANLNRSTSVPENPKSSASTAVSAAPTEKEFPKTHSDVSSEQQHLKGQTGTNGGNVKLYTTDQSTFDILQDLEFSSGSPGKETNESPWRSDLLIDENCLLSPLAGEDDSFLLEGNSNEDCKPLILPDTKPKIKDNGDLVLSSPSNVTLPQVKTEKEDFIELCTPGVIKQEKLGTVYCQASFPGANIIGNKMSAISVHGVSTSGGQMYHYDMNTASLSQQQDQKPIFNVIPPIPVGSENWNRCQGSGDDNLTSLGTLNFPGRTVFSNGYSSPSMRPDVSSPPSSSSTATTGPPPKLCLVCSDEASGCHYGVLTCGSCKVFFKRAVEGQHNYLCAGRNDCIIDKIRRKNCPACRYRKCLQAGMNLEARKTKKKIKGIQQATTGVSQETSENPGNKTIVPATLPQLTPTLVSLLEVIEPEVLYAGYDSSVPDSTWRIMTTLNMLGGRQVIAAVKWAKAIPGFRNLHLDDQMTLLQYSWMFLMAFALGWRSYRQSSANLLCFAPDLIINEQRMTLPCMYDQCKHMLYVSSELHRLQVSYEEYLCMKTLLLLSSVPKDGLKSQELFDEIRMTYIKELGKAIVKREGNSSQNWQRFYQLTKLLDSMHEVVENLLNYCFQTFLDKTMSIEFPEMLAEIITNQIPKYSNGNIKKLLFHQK
The settings on record: HMLN-hGR; with 3 nM dexamethasone; % of maximal luciferase activity induced by 100 nM dexamethasone; at 10^-5M.

Assay [3] deals with T1, hGR. As to the kind of experiment: cell-based.

SMILES strings stand for the structures.

What is called IC50 is the concentration needed to halve the response being measured. As for `CCC(=O)[C@@]1(C)CC[C@H]2[C@@H]3CCC4=CC(=O)CCC4=C3CC[C@@]21C` [promegestone], the “% min act (minimal activity)” value in assay [1] (UMLN-zfGR, with 3 nM dexamethasone, % of maximal luciferase activity induced by 100 nM dexamethasone, at 10^-5M) came out at 8 ± 2%. The IC50 in assay [1] (read-out: IC50) is 1110 nM.
On to `CC(=O)[C@H]1CC[C@H]2[C@@H]3C=CC4=CC(=O)CC[C@@]4(C)[C@@H]3CC[C@]12C` [dydrogesterone], for which the “% min act (minimal activity)” value in assay [2] is recorded as 6 ± 1%. Besides, in assay [3], the IC50 amounted to 2700 nM.
